{
  "source": "paper PMC12136788",
  "binders": {"B1": {"name": "chr12:21491601:21491717:-|CDS|ENSG00000004700|unk|total|mutant (ssRNA)", "RNA": "GGGAGUUCUACAGUCCGACGAUCGCUGCCUCCCACCGCUCUAACUGAGGAACUGGAUUCUAUAACCAGUGAGCUACAUGCAGCCGAAAUUCAAAUUCAAGAACUUACGGAAAGGCAACAAGAGCUUAUUCAGAAAAAAAAAGUCAACAGAGGAUUGAGCAUCA"}, "B2": {"name": "chr9:128061232:128063427:-|three_prime_utr|ENSG00000171169|control|control|control (ssRNA)", "RNA": "GGGAGUUCUACAGUCCGACGAUCCCAUGAUGGGAUGAAAACUCCAUGGACUUGUAAGUGGGUCCUGUGAUUGGCCUUGGCCUUAGACCGGCCACGUGCACAGCUCCCUCUUUAAUAAACGCUUAGGGGUUGCACUGUUUUUGACAACAGAGGAUUGAGCAUCA"}, "B3": {"name": "chr14:73931500:73934255:-|three_prime_utr|ENSG00000156050|control|control|control (ssRNA)", "RNA": "GGGAGUUCUACAGUCCGACGAUCAGCUAACUUGGGUUUGAGUCAAGGCAGGGAAAACUUGGGUUUUGAGUCAUGGCUACUGUUAGAGGAUGGACAAAUGAAGAGUAGCAGAUUAACAGGCCAGGCGCAGUGGCUCACGCCUGUCAACAGAGGAUUGAGCAUCA"}, "B4": {"name": "chr3:98797553:98797658:-|3pUTR|ENSG00000057019|msi1|total|mutant (ssRNA)", "RNA": "GGGAGUUCUACAGUCCGACGAUCAUUUCAUUCAUUGAAGAAUCAAUACAUAUUUUGUUUCAAAAUGUUUGAAACAAAAGACACCGAUGGCCGACUUUUAUUAAAACAUAUAUGGAUGUGGAAAGCACAUAUAUUAAUGCAGUCCAACAGAGGAUUGAGCAUCA"}, "B5": {"name": "chr8:37861146:37861251:-|3pUTR|ENSG00000156675|unk|total|mutant (ssRNA)", "RNA": "GGGAGUUCUACAGUCCGACGAUCCUGUGCAGAGCAAGAAGAUGAUACUUAUUUUUGAAUUUGUAUUUUUAAAACCCGAUUUACCGACUUUUUUUUUUUUUAACCCGGGCACUUGCUUCCUUCUCCGCUAAAAGCACCAGCUGACAACAGAGGAUUGAGCAUCA"}, "B6": {"name": "ENSG00000124766:be:win_2601|3pUTR|ENSG00000124766|bound_else_gene|NA|bound_elsewhere_windowed (ssRNA)", "RNA": "GGGAGUUCUACAGUCCGACGAUCAGGAUAAUAUAAAAAGCAGAUAGAUGGCGCUAUGUUUGAUUCCUACAACGAAAUUAUCACCAGCUUUUUUUCAUUCUUAACUCUUUAAAGGAUUCAAACGCAACUCAAAUCUGUGCUGGACAACAGAGGAUUGAGCAUCA"}, "B7": {"name": "ENSG00000113083:stop:overlap|stop_codon|ENSG00000113083|stop_codon|NA|stop_codon (ssRNA)", "RNA": "GGGAGUUCUACAGUCCGACGAUCGUGACAUUCGCUACACAGGACAUCAUGCGUAUGCCUCAGGCUGCACAAUUUCACCGUAUUAGAAGGCAAAGCAAAACUCCCAAUGGAUAAAUCAGUGCCUGGUGUUCUGAAGUGGGAAAACAACAGAGGAUUGAGCAUCA"}, "B8": {"name": "chr22:21445082:21445183:+|CDS|ENSG00000169635|msi1|total|mutant (ssRNA)", "RNA": "GGGAGUUCUACAGUCCGACGAUCCCUGUGUGACGUCAUCAUCAUGGUGGAGAACUCCAUCUUCCGGGCCCACAAGAACGUCCCCGCCGCCAGCAGCAUCUAUUUCAAGUCCCUGGUCCUGCACGACAACCUCAUCAACCUGGACAACAGAGGAUUGAGCAUCA"}, "B9": {"name": "chr10:113908677:113908778:+|3pUTR|ENSG00000196865|unk|total|mutant (ssRNA)", "RNA": "GGGAGUUCUACAGUCCGACGAUCAGCUAUGCUCCUUACUUACUUCUUUUAUUAUAAACAAAUUCCUUUGCUUUGGCUGAUACCCGCUGAGUCAUUGAUCAUCAUUGGUACCAUGAUAUUGUAAUCUAUGCUGCUAUUUGGCACCAACAGAGGAUUGAGCAUCA"}, "B10": {"name": "ENSG00000136451:be:win_2951|3pUTR|ENSG00000136451|bound_else_gene|NA|bound_elsewhere_windowed (ssRNA)", "RNA": "GGGAGUUCUACAGUCCGACGAUCAAAAUUAACUAAACCAAGAUGCUGUGAUUUUUUAAGUUGCAAUAUGUUUUUGGUUUUUUUCAUUUUUUAAUCAUUGCAGUUAAGAGAAAUGGAAAUUAGUUGUGUUAAUCUUGCAGAAUGCAACAGAGGAUUGAGCAUCA"}, "B11": {"name": "chr2:224511460:224511569:-|CDS|ENSG00000036257|unk|FALSE|bound_elsewhere (ssRNA)", "RNA": "GGGAGUUCUACAGUCCGACGAUCGAAAGCCAGAAAUUUUUAGCAGAAAAUAGUGCUUCAGUAUAUAUAAAGAAAGUAGAAGCUAGAAUUAAUGAAGAAAUAGAACGAGUGAUGCACUGCCUUGACAAAUCAACGGAAGAACCACAACAGAGGAUUGAGCAUCA"}, "B12": {"name": "ENSG00000124766:be:win_101|CDS|ENSG00000124766|bound_else_gene|NA|bound_elsewhere_windowed (ssRNA)", "RNA": "GGGAGUUCUACAGUCCGACGAUCCCACGCCCGGCUCCACCGCCUCCACGGGCGGCAAGGCCGACGACCCGAGCUGGUGCAAGACCCCGAGUGGGCACAUCAAGCGACCCAUGAACGCCUUCAUGGUGUGGUCGCAGAUCGAGCCAACAGAGGAUUGAGCAUCA"}, "B13": {"name": "chr5:83942588:83942842:-|3pUTR|ENSG00000164176|msi1|FALSE|unique (ssRNA)", "RNA": "GGGAGUUCUACAGUCCGACGAUCUUUUCUAAUUGAAUUUCCUAUUAGUUGACUAAAAGAAGUGUCAUGUUUACUCAUAUAUGUAGAACAUGACUGCCUAUCAGUAGAUUGAUCUGUAUUUAAUAUUCGUUAAUUAAAUCUGCACAACAGAGGAUUGAGCAUCA"}, "B14": {"name": "chrX:142202868:142203987:-|CDS|ENSG00000046774|control|control|control (ssRNA)", "RNA": "GGGAGUUCUACAGUCCGACGAUCUCAGAAAGCAUCAAGAAGAAAGUACUAGAGUUUUUAGCCAAGCUGAACAACACUGUUCCUAGUUCCUUUCCAUCCUGGUACAAGGAUGCUUUGAAAGAUGUGGAAGAGAGAGUCCAGGCCCAACAGAGGAUUGAGCAUCA"}, "B15": {"name": "chr7:6409910:6410025:-|CDS|ENSG00000164535|unk|FALSE|unique (ssRNA)", "RNA": "GGGAGUUCUACAGUCCGACGAUCCUCUGCUGCUCACUAUAGCGCCAAGUGGUCACACGAAGCGGAAUUCAGCAAAAUACUCAUAGGUCCGAAGAUGCUCACCGACCACAUGCCAGACAUCCUGAUGCGGGCCUUGGACAGCGUCAACAGAGGAUUGAGCAUCA"}, "B16": {"name": "chr20:53567570:53567671:-|3pUTR|ENSG00000171940|unk|FALSE|unique (ssRNA)", "RNA": "GGGAGUUCUACAGUCCGACGAUCUCACAAGCUGAGCCAUAUGUACAUAAUCUAGAUUUUGUUUUCAUAGUUUUGCACUUUUAUAGCCUAUUUUUGAAGAUUAACACAUUUGCAAGAUGAUUGACUCAAUCUUUGCCUAAUCCACAACAGAGGAUUGAGCAUCA"}, "B17": {"name": "chr8:63210610:63210711:+|3pUTR|ENSG00000185728|msi1|total|mutant (ssRNA)", "RNA": "GGGAGUUCUACAGUCCGACGAUCCAUGAAGUAAAAAUUUAUUACUCCCGGUAUUCACCCGCUAAAUAAACACCGUUCUUGUUCCGCAAGCAUAUGUUGUUCCUCAGCUCUUUUCUCCAGCUUUUGCAGUGUCCUGGCAUCCUUCAACAGAGGAUUGAGCAUCA"}, "B18": {"name": "ENSG00000070961:be:win_6401|3pUTR|ENSG00000070961|bound_else_gene|NA|bound_elsewhere_windowed (ssRNA)", "RNA": "GGGAGUUCUACAGUCCGACGAUCCUGGCUUCAUUUCUGUGAAAUUGCUCUUUGAAAAUUUCUUUUUACACGUGUAAGCCAACUGAGAUACCGUGAUGGUGUUGAUUUCUUUCAAUGAUGCUUACCAUCUAUUUUAGCCACUGACAACAGAGGAUUGAGCAUCA"}, "B19": {"name": "chr17:29166540:29166641:-|CDS|ENSG00000196535|unk|FALSE|unique (ssRNA)", "RNA": "GGGAGUUCUACAGUCCGACGAUCCUGGACUCGGGCCACCUAAGUACAGCCAGCUCCAGCGAUGACCUCAAGGGUGAGGAGGGUAGCUUCCGUGGCUCGGUGCUGCAGCGGGCAGCCAAGUUCGGCUCACUGGCCAAGCAGAACCAACAGAGGAUUGAGCAUCA"}, "B20": {"name": "chr7:6403675:6403689:+|3pUTR|ENSG00000136238|msi1_unk|total|mutant (ssRNA)", "RNA": "GGGAGUUCUACAGUCCGACGAUCACUGUCACUUGACCAAUACUGACCCUCUUUACCUCGCCCACGCGGACACACGCCUCCUGCCGUCGCUUUGCCUAUUGAUGUUCCUUUGGGUCUGUGAGGUUCUGUAAACUGUGCCCGUGCCAACAGAGGAUUGAGCAUCA"}, "B21": {"name": "chrX:71300841:71300885:+|3pUTR|ENSG00000147140|msi1_unk|FALSE|overlapping (ssRNA)", "RNA": "GGGAGUUCUACAGUCCGACGAUCCCCCAUAUAUUACCCCUUCAUGUCCUAAAGAAGACAUUUUCUCUUAGAGAUUUUCAUUUUAGUGUAUCUUUAAAAAAAAAUCUUGUGUUAACUUGCCUCCAUCUUUUUCUUGGGUGAGGACAACAGAGGAUUGAGCAUCA"}, "B22": {"name": "ENSG00000107863:be:win_2951|CDS|ENSG00000107863|bound_else_gene|NA|bound_elsewhere_windowed (ssRNA)", "RNA": "GGGAGUUCUACAGUCCGACGAUCAGGAAGAGCAGCCCAUCAGUGUUAAUGCUUGCUUGAUAGACAUCUCUUACAGUGAGACCAAGAGGAAAAAUGUGUUUCGACUCACCACGUCCGACUGUGAAUGCCUGUUUCAGGCUGAAGCAACAGAGGAUUGAGCAUCA"}},
  "note": "The list shows a part of the results.",
  "data": [
    {"target": "MSI1 full-length (mouse, UniProt Q61474 1-362)", "sequence (Q61474 whole entry)": "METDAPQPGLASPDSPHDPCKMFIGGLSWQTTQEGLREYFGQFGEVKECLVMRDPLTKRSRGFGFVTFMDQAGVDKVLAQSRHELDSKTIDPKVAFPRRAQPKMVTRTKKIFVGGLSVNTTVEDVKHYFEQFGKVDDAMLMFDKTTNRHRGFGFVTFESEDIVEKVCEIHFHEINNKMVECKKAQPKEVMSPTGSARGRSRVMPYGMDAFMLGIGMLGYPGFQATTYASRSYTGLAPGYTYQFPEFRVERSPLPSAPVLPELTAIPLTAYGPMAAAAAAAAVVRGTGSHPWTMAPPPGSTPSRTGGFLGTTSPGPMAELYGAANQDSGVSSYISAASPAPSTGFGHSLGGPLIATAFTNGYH", "assay": "nsRBNS (natural sequence RNA bind-n-seq); RBNS binding buffer (assumed for nsRBNS): 25 mM Tris pH 7.5, 150 mM KCl, 3 mM MgCl2, 0.01% Triton X-100, 500 ug/ml BSA, 20 U/ml SUPERase-In, 4 C; UNK is unkempt and MSI1 is Musashi-1; names of the RNAs are library labels; protein concentration not given here; high values mean tight binding", "units": {"binding signal": "enrichment R"}, "values": [
      {"binder": "B1", "binding signal": 0.352},
      {"binder": "B2", "binding signal": 0.41},
      {"binder": "B3", "binding signal": 0.698},
      {"binder": "B4", "binding signal": 0.366},
      {"binder": "B5", "binding signal": 0.679},
      {"binder": "B6", "binding signal": 0.725},
      {"binder": "B7", "binding signal": 6.59},
      {"binder": "B8", "binding signal": 0.628},
      {"binder": "B9", "binding signal": 3.24},
      {"binder": "B10", "binding signal": 0.484},
      {"binder": "B11", "binding signal": 36.5},
      {"binder": "B12", "binding signal": 0.283},
      {"binder": "B13", "binding signal": 3.81},
      {"binder": "B14", "binding signal": 0.418},
      {"binder": "B15", "binding signal": 0.741},
      {"binder": "B16", "binding signal": 4.98},
      {"binder": "B17", "binding signal": 1.33},
      {"binder": "B18", "binding signal": 0.46},
      {"binder": "B19", "binding signal": 0.512},
      {"binder": "B20", "binding signal": 0.582},
      {"binder": "B21", "binding signal": 16.5},
      {"binder": "B22", "binding signal": 0.444}
    ]}
  ]
}
